Our source for the displacement values is PubChem BioAssay AID1240 (Sanford-Burnham Center for Chemical Genomics, 2008).

The structures appear in SMILES notation. Among all 50,000 compounds or so, about 800 (1.6%) showed an effect of 50% or more. The list shows a part of the results.

This assay addresses Bcl-2-like protein 10 (Homo sapiens) (UniProt Q9HD36). Description: Phenotype converters, Bcl-B/TR3 peptide binding displacement, primary biochemical FP (AID 1240).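 Also: 0% = Bcl-B with tracer peptide and DMSO and 100% = tracer peptide lacking Bcl-B.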 Conditions: GST-Bcl-B / FITC-TR3 peptide fluorescence polarization; stronger effect = higher value; compound at 3.75 mg/L.
Chain of UniProt Q9HD36 (Q9HD36 whole entry, looked up): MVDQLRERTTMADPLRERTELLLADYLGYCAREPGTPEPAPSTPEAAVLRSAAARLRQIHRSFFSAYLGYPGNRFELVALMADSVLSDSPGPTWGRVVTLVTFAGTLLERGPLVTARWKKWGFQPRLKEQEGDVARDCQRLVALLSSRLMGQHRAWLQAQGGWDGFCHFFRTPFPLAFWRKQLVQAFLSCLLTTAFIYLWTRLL
Turning to `CCc1nnc2c3c4c(sc3nc(C)n12)CCC4`, the displacement came to 7.5%.

Turning to `N#C/C(=C\c1ccc(I)o1)c1ccccc1`, the displacement is -34%.

`O=[N+]([O-])c1ccc(-c2nc(Cc3ccccc3)no2)cc1`: the displacement was -7.2%.

Regarding `Clc1ccccc1CN1CCN(N=Cc2cccc(Br)c2)CC1`, the displacement was -6.7%.

As for `CC(C)CC(=O)N1CCN(Cc2cccc(C(F)(F)F)c2)CC1`, the displacement was -8%.

In the case of `O=C(/C=C/c1ccc2c(c1)OCO2)NCC1CCCO1` (stereo unspecified), the displacement is -11%.

Regarding `COc1cc(C(=O)N(CCO)CCO)ccc1OC1OC(COC(C)=O)C(OC(C)=O)C(OC(C)=O)C1OC(C)=O` (stereo unspecified), the displacement worked out at 1.2%.

Turning to `CC(=O)c1ccc(NC(=O)c2ccc(CN(c3ccc(C)c(C)c3)S(C)(=O)=O)cc2)cc1`, the displacement is -3.1%.

Take `O=P(O)(c1ccc(Cl)cc1)c1ccc(Cl)cc1`: the displacement was -20.5%.

As for `CCN(CC)C(=O)c1sc(NC(=O)c2ccc(F)cc2)c(C(=O)OC(C)C)c1C`, the displacement is 2.6%.

In the case of `Cc1ccc(CNC(=O)C(=O)Nc2ccc(C)cc2)cc1`, the displacement was -6.8%.

For the compound `CCc1ccc(O)c(N=Cc2cccc(C)c2O)c1`, the displacement stood at 6.6%.

As for `COC(=O)c1cc(NC(=O)COc2ccc(C)cc2)cc(C(=O)OC)c1`, the displacement is 6.2%.

As for `CCC(=O)Nc1cccc(Oc2ccc3c(c2)C(=O)N(c2ccc(OC)cc2)C3=O)c1`, the displacement stood at 13.6%.

For the compound `O=C(O)c1ccc(Cl)c(-c2ccc(C=C3C(=O)c4ccccc4C3=O)o2)c1`, the displacement worked out at 99.1%.

For `COc1ccccc1N1CCN(C2CC(=O)N(c3cccc(Br)c3)C2=O)CC1` (stereo unspecified), the displacement is -7.2%.

Take `CC(C)OC(=O)c1c(NC(=O)c2ccc(Cl)cc2[N+](=O)[O-])sc2c1CCCCC2`: the displacement is -2.5%.

For `Cc1cccc(C(=O)O)c1NC(=O)c1cccc(F)c1`, the displacement was -12.9%.

For `CCOC(=O)c1c(NC(=O)C2C3CCC(C3)C2C(=O)O)sc(C)c1C` (stereo unspecified), the displacement was -4.5%.

For `COc1ccccc1C=C1C(=O)c2ccccc2C1=O`, the displacement was found to be 11.5%.

For `N/C(=N\S(=O)(=O)c1ccccc1)c1ccc(Cl)cc1`, the displacement worked out at 12.3%.

`COc1ccc(C(=O)Nc2ccc3oc4ccc(NC(=O)c5ccc(OC)cc5)cc4c(=O)c3c2)cc1`: the displacement was -10%.

Take `COc1ccc(OC)c(/C=C2/SC(NC(C)=O)=NC2=O)c1`: the displacement came to 156%.

On to `Cc1cc(C)cc(OCC(=O)NCc2ccncc2)c1`, for which the displacement amounted to 0%.

With `OCc1ccc(-c2ccc(Br)cc2)o1`, the displacement is 10.8%.

For `CCN(CC)CCOCCOc1cc(C)ccc1C`, the displacement was 3.5%.

Regarding `COc1ccc(C2NC(=O)NC(c3ccccc3)=C2c2ccc3ccccc3n2)cc1OC` (stereo unspecified), the displacement came to 7.8%.

`CCOc1ccc(C(=O)NCc2ccco2)cc1Br`: the displacement is -7.9%.

For the compound `C#CCOc1ccc(/C=C2\C(=O)NC(=O)N(c3ccc(F)cc3)C2=O)cc1Br`, the displacement is -56.9%.

In the case of `COCC(C)NCc1cc(OC)c(OC)cc1OC` (stereo unspecified), the displacement came to 2.4%.

In the case of `COc1ccc(C)cc1NC(=O)C(C)Oc1ccc(Cl)cc1C` (stereo unspecified), the displacement was -8.5%.
